# Assay results published in the supplement of paper PMC8728848.
# Some of the results follow.
# B1: GS13686A-pdi-553-26-553 (Parabacteroides distasonis) (protein)
# chain: NENPDKPTDDVNYNMNEPRLASTLRGGLIIEGNVEQRLKPLQIDFYSQMTVDGGGWGTKNYIQDDEWNNLVWEEYLKQIASINIVIRSLTEKDKDAYANTIAFARIWRVYVHTLAADKFGPMPFPAYEIVEANPPYKSLKDIYDEYFRELDAAINGFNDSAQPIFSDAGIDLIYKNDVSKWKRFANSLRLRLAVRLTEVDQEKCIAEANAAISSPAGLISDKADNAYMPPKADGSWGQDYNYTMFQITWSGPICMSKSVEKLVTNIGGVAWPQGVVNQTSGVAVSSVHPEKVDPRAPKIFQPGIENGDWKGLVYGPKAEEANTGIYQSKQCAELGFIIKDGYPYKSRPYDLFLSEEVHFLKAELYARGFIAGDAKSEYEAGVRASFATWGVTSEVDDYLTSTEKNEAGTSARYDDQQGAGNTALEKIITQKYIAGIPDLAQEGWNDKRRLNLPRLDVAVYRDQAVYNNNDKDILKSANFIKRMRYPTKESLINATEYEKGKSMLGGKGDIVSTPLWWDKNSNYCTSSK
# Key:
# Experiment in all cases: glycan array binding signal (z-score within array); higher = stronger binding
# Settings in all cases: glycan notation: IUPAC condensed, linker removed
# [1] = target: Gal(b1-4)GlcNAc(b1-3)Gal(b1-4)GlcNAc(b1-2)[Gal(b1-4)GlcNAc(b1-3)Gal(b1-4)GlcNAc(b1-6)]Man(a1-6)[Gal(b1-4)GlcNAc(b1-3)Gal(b1-4)GlcNAc(b1-2)Man(a1-3)]Man(b1-4)GlcNAc(b1-4)GlcNAc
# In short: (§1)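 Arrays were curated from the Consortium for Functional Glycomics database, 3228 in total, and kept only where the protein sequence was available. Binding is expressed as a within-array Z-score. This score was averaged across arrays of the same protein sequence at different concentrations or buffers and across linkers, and negative values can be read as non-binding.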
# [2] = target: Gal(b1-4)GlcNAc(b1-3)Gal(b1-4)GlcNAc(b1-2)[Gal(b1-4)GlcNAc(b1-3)Gal(b1-4)GlcNAc(b1-6)]Man(a1-6)[Gal(b1-4)GlcNAc(b1-3)Gal(b1-4)GlcNAc(b1-2)Man(a1-3)]Man(b1-4)GlcNAc(b1-4)[Fuc(a1-6)]GlcNAc
# In short: as §1
# [3] = target: Gal(b1-4)GlcNAc(b1-3)Gal(b1-4)GlcNAc(b1-3)Gal(b1-4)GlcNAc
# In short: as §1
# [4] = target: Gal(b1-4)GlcNAc(b1-3)Gal(b1-4)GlcNAc(b1-3)Gal(b1-4)GlcNAc(b1-2)Man(a1-3)[Gal(b1-4)GlcNAc(b1-3)Gal(b1-4)GlcNAc(b1-3)Gal(b1-4)GlcNAc(b1-2)Man(a1-6)]Man(b1-4)GlcNAc(b1-4)GlcNAc
# In short: as §1
# [5] = target: Gal(b1-4)GlcNAc(b1-3)Gal(b1-4)GlcNAc(b1-3)Gal(b1-4)GlcNAc(b1-2)Man(a1-3)[Gal(b1-4)GlcNAc(b1-3)Gal(b1-4)GlcNAc(b1-3)Gal(b1-4)GlcNAc(b1-2)Man(a1-6)]Man(b1-4)GlcNAc(b1-4)[Fuc(a1-6)]GlcNAc
# In short: as §1
# [6] = target: Gal(b1-4)GlcNAc(b1-3)Gal(b1-4)GlcNAc(b1-3)Gal(b1-4)GlcNAc(b1-2)[Gal(b1-4)GlcNAc(b1-3)Gal(b1-4)GlcNAc(b1-3)Gal(b1-4)GlcNAc(b1-6)]Man(a1-6)[Gal(b1-4)GlcNAc(b1-3)Gal(b1-4)GlcNAc(b1-3)Gal(b1-4)GlcNAc(b1-2)Man(a1-3)]Man(b1-4)GlcNAc(b1-4)[Fuc(a1-6)]GlcNAc
# In short: as §1
# [7] = target: Gal(b1-4)GlcNAc(b1-3)Gal(b1-4)GlcNAc(b1-3)Gal(b1-4)GlcNAc(b1-3)Gal(b1-4)GlcNAc(b1-2)Man(a1-3)[Gal(b1-4)GlcNAc(b1-3)Gal(b1-4)GlcNAc(b1-3)Gal(b1-4)GlcNAc(b1-3)Gal(b1-4)GlcNAc(b1-2)Man(a1-6)]Man(b1-4)GlcNAc(b1-4)GlcNAc
# In short: as §1
# [8] = target: Gal(b1-4)GlcNAc(b1-3)Gal(b1-4)GlcNAc(b1-3)Gal(b1-4)GlcNAc(b1-3)Gal(b1-4)GlcNAc(b1-2)Man(a1-3)[Gal(b1-4)GlcNAc(b1-3)Gal(b1-4)GlcNAc(b1-3)Gal(b1-4)GlcNAc(b1-3)Gal(b1-4)GlcNAc(b1-2)Man(a1-6)]Man(b1-4)GlcNAc(b1-4)[Fuc(a1-6)]GlcNAc
# In short: as §1
# [9] = target: Gal(b1-4)GlcNAc(b1-3)Gal(b1-4)GlcNAc(b1-3)Gal(b1-4)GlcNAc(b1-3)Gal(b1-4)GlcNAc(b1-2)[Gal(b1-4)GlcNAc(b1-3)Gal(b1-4)GlcNAc(b1-3)Gal(b1-4)GlcNAc(b1-3)Gal(b1-4)GlcNAc(b1-6)]Man(a1-6)[Gal(b1-4)GlcNAc(b1-3)Gal(b1-4)GlcNAc(b1-3)Gal(b1-4)GlcNAc(b1-3)Gal(b1-4)GlcNAc(b1-2)Man(a1-3)]Man(b1-4)GlcNAc(b1-4)[Fuc(a1-6)]GlcNAc
# In short: as §1
# [10] = target: Gal(b1-4)GlcNAc(b1-3)Gal(b1-4)GlcNAc(b1-3)Gal(b1-4)GlcNAc(b1-3)Gal(b1-4)GlcNAc(b1-3)Gal(b1-4)GlcNAc(b1-2)Man(a1-3)[Gal(b1-4)GlcNAc(b1-3)Gal(b1-4)GlcNAc(b1-3)Gal(b1-4)GlcNAc(b1-3)Gal(b1-4)GlcNAc(b1-3)Gal(b1-4)GlcNAc(b1-2)Man(a1-6)]Man(b1-4)GlcNAc(b1-4)GlcNAc
# In short: as §1
# [11] = target: Gal(b1-4)GlcNAc(b1-3)Gal(b1-4)GlcNAc(b1-3)Gal(b1-4)GlcNAc(b1-3)Gal(b1-4)GlcNAc(b1-3)Gal(b1-4)GlcNAc(b1-2)Man(a1-3)[Gal(b1-4)GlcNAc(b1-3)Gal(b1-4)GlcNAc(b1-3)Gal(b1-4)GlcNAc(b1-3)Gal(b1-4)GlcNAc(b1-3)Gal(b1-4)GlcNAc(b1-2)Man(a1-6)]Man(b1-4)GlcNAc(b1-4)[Fuc(a1-6)]GlcNAc
# In short: as §1
# [12] = target: Gal(b1-4)GlcNAc(b1-3)Gal(b1-4)GlcNAc(b1-3)Gal(b1-4)GlcNAc(b1-3)Gal(b1-4)GlcNAc(b1-3)Gal(b1-4)GlcNAc(b1-2)[Gal(b1-4)GlcNAc(b1-3)Gal(b1-4)GlcNAc(b1-3)Gal(b1-4)GlcNAc(b1-3)Gal(b1-4)GlcNAc(b1-3)Gal(b1-4)GlcNAc(b1-6)]Man(a1-6)[Gal(b1-4)GlcNAc(b1-3)Gal(b1-4)GlcNAc(b1-3)Gal(b1-4)GlcNAc(b1-3)Gal(b1-4)GlcNAc(b1-3)Gal(b1-4)GlcNAc(b1-2)Man(a1-3)]Man(b1-4)GlcNAc(b1-4)[Fuc(a1-6)]GlcNAc
# In short: as §1
# [13] = target: Gal(b1-4)GlcNAc(b1-3)Gal(b1-4)GlcNAc(b1-3)Gal(b1-4)GlcNAc(b1-3)Gal(b1-4)GlcNAc(b1-3)Gal(b1-4)GlcNAc(b1-3)Gal(b1-4)GlcNAc(b1-2)Man(a1-3)[Gal(b1-4)GlcNAc(b1-3)Gal(b1-4)GlcNAc(b1-3)Gal(b1-4)GlcNAc(b1-3)Gal(b1-4)GlcNAc(b1-3)Gal(b1-4)GlcNAc(b1-3)Gal(b1-4)GlcNAc(b1-2)Man(a1-6)]Man(b1-4)GlcNAc(b1-4)GlcNAc
# In short: as §1
# [14] = target: Gal(b1-4)GlcNAc(b1-3)Gal(b1-4)GlcNAc(b1-3)GalNAc
# In short: as §1
# [15] = target: Gal(b1-4)GlcNAc(b1-3)Gal(b1-4)GlcNAc(b1-3)[Gal(b1-4)GlcNAc(b1-3)Gal(b1-4)GlcNAc(b1-6)]GalNAc
# In short: as §1
# [16] = target: Gal(b1-4)GlcNAc(b1-3)Gal(b1-4)GlcNAc(b1-6)[Gal(b1-3)]GalNAc
# In short: as §1
# [17] = target: Gal(b1-4)GlcNAc(b1-3)Gal(b1-4)[Fuc(a1-3)]GlcNAc(b1-3)Gal(b1-4)[Fuc(a1-3)]GlcNAc
# In short: as §1
# [18] = target: Gal(b1-4)GlcNAc(b1-3)GalNAc
# In short: as §1
# [19] = target: Gal(b1-4)GlcNAc(b1-3)[Fuc(a1-3)GlcNAc(b1-6)]Gal(b1-4)Glc
# In short: as §1
# [20] = target: Gal(b1-4)GlcNAc(b1-3)[Gal(b1-4)GlcNAc(b1-6)]Gal(b1-4)GlcNAc
# In short: as §1
# [21] = target: Gal(b1-4)GlcNAc(b1-3)[GlcNAc(b1-6)]Gal(b1-4)GlcNAc
# In short: as §1
# [22] = target: Gal(b1-4)GlcNAc(b1-6)Gal(b1-4)GlcNAc
# In short: as §1
# [23] = target: Gal(b1-4)GlcNAc(b1-6)GalNAc
# In short: as §1
# [24] = target: Gal(b1-4)GlcNAc(b1-6)[Gal(b1-3)]GalNAc
# In short: as §1
# [25] = target: Gal(b1-4)GlcNAc(b1-6)[Gal(b1-4)GlcNAc(b1-3)]GalNAc
# In short: as §1
# Gal(b1-4)GlcNAc6P = target: Gal(b1-4)GlcNAc6P
# In short: as §1
# Gal(b1-6)Gal = target: Gal(b1-6)Gal
# In short: as §1
# Gal3S(b1-3)GalNAc = target: Gal3S(b1-3)GalNAc
# In short: as §1
# Gal3S(b1-3)GlcNAc = target: Gal3S(b1-3)GlcNAc
# In short: as §1
# [26] = target: Gal3S(b1-3)[Fuc(a1-4)]GlcNAc
# In short: as §1
# Gal3S(b1-4)Glc = target: Gal3S(b1-4)Glc
# In short: as §1
# Gal3S(b1-4)Glc6S = target: Gal3S(b1-4)Glc6S
# In short: as §1
# Gal3S(b1-4)GlcNAc = target: Gal3S(b1-4)GlcNAc
# In short: as §1
# [27] = target: Gal3S(b1-4)[Fuc(a1-3)]Glc6S
# In short: as §1
# [28] = target: Gal3S(b1-4)[Fuc(a1-3)]GlcNAc
# In short: as §1
# [29] = target: Gal3S(b1-4)[Fuc(a1-3)]GlcNAc6S
# In short: as §1
# Gal3S4S(b1-4)GlcNAc = target: Gal3S4S(b1-4)GlcNAc
# In short: as §1
binder,measurement,setting,value
B1,glycan array binding signal (z-score),[1],-0.032
same,glycan array binding signal (z-score),[2],0.113
same,glycan array binding signal (z-score),[3],-0.343
same,glycan array binding signal (z-score),[4],0.45
same,glycan array binding signal (z-score),[5],0.04
same,glycan array binding signal (z-score),[6],-0.172
same,glycan array binding signal (z-score),[7],0.13
same,glycan array binding signal (z-score),[8],0.588
same,glycan array binding signal (z-score),[9],0.203
same,glycan array binding signal (z-score),[10],0.068
same,glycan array binding signal (z-score),[11],0.086
same,glycan array binding signal (z-score),[12],0.187
same,glycan array binding signal (z-score),[13],0.487
same,glycan array binding signal (z-score),[14],-0.105
same,glycan array binding signal (z-score),[15],0.047
same,glycan array binding signal (z-score),[16],-0.244
same,glycan array binding signal (z-score),[17],0.042
same,glycan array binding signal (z-score),[18],-0.371
same,glycan array binding signal (z-score),[19],-0.111
same,glycan array binding signal (z-score),[20],-0.088
same,glycan array binding signal (z-score),[21],-0.011
same,glycan array binding signal (z-score),[22],-0.386
same,glycan array binding signal (z-score),[23],-0.056
same,glycan array binding signal (z-score),[24],0.008
same,glycan array binding signal (z-score),[25],-0.002
same,glycan array binding signal (z-score),Gal(b1-4)GlcNAc6P,0.076
same,glycan array binding signal (z-score),Gal(b1-6)Gal,-0.113
same,glycan array binding signal (z-score),Gal3S(b1-3)GalNAc,-0.419
same,glycan array binding signal (z-score),Gal3S(b1-3)GlcNAc,-0.284
same,glycan array binding signal (z-score),[26],-0.303
same,glycan array binding signal (z-score),Gal3S(b1-4)Glc,-0.293
same,glycan array binding signal (z-score),Gal3S(b1-4)Glc6S,-0.181
same,glycan array binding signal (z-score),Gal3S(b1-4)GlcNAc,0.125
same,glycan array binding signal (z-score),[27],0.425
same,glycan array binding signal (z-score),[28],0.256
same,glycan array binding signal (z-score),[29],0.003
same,glycan array binding signal (z-score),Gal3S4S(b1-4)GlcNAc,0.177
